Experimental data reported in PubChem BioAssay AID488969 (Vanderbilt High Throughput Screening Facility, 2010).
Whole data set: some 110,000 compounds, median “z-score” near -0.1, cut for the highest 2% near 2. This is one part of the list.

Target: Metabotropic glutamate receptor 8 (Rattus norvegicus) (UniProt P70579)
Experiment: rat mGluR8 modulators via GIRK flux, primary screen, cell-based, thallium flux, HTS (AID 488969)
Conditions: HEK293 rat mGluR8, GIRK (G protein-gated inwardly rectifying potassium channel) thallium flux, FluoZin2; at 10 µM; stronger effect = higher value; submaximal glutamate (EC20) added with thallium

Sequence of UniProt P70579 (P70579 whole entry, looked up): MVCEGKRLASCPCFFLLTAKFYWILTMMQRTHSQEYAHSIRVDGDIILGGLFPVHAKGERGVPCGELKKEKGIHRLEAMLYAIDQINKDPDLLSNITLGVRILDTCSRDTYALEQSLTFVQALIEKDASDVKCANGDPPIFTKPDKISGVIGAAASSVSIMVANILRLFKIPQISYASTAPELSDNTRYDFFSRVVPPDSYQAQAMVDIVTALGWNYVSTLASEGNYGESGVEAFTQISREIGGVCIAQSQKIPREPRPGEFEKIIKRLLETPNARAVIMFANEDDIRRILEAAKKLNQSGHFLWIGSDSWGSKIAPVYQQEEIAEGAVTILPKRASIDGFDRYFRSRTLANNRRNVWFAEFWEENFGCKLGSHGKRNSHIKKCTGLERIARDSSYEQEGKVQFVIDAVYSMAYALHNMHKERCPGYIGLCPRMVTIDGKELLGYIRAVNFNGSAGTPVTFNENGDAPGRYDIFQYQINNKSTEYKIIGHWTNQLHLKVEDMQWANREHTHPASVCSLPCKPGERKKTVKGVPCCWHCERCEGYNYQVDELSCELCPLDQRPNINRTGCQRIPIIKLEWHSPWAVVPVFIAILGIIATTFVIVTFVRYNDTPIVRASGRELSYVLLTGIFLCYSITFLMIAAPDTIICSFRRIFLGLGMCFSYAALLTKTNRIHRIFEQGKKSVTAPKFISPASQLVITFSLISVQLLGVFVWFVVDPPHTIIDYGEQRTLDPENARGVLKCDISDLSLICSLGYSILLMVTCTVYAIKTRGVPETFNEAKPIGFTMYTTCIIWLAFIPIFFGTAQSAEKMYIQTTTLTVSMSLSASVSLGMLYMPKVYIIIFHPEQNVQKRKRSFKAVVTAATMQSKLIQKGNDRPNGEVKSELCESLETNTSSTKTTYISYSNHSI

SMILES | z-score
CN(C)c1nc(SCCOC(=O)Nc2ccccc2)nc(N(C)C)n1 | -0.557
COc1ccc(S(=O)(=O)Cc2ccc(C(=O)N3CCC(C(N)=O)CC3)o2)cc1 | -0.374
Cc1c(C)n(C(=O)CN2CCC(C(N)=O)CC2)c2ccccc12 | 0.0486
COc1cc(NC(=O)CN2CCCCC2C)c(C)cc1[N+](=O)[O-] (centres undefined) | -0.225
O=C(ON=C1CCN(S(=O)(=O)c2ccccc2)CC1)c1ccc(F)cc1 | 0.0606
O=C(CNC(=S)NC(=O)c1ccc(F)cc1)c1ccccc1 | -0.0791
CC(C)(C)c1ccc(OCC(=O)NNC(=O)CCc2ccccc2)cc1 | 0.639
COc1ccc(C(=O)/C=C/Nc2cc(C)on2)c(OC)c1 | -0.218
CCOc1ccc(OCCNC2CCCC2)cc1 | 0.0455
O=c1c2ccccc2nc(-c2ccco2)n1Cc1ccccc1 | -0.53
O=S(=O)(c1cccc(C(F)(F)F)c1)N1CCC(c2cc(-c3cccc4ccccc34)n[nH]2)CC1 | 1.58
O=C(Nc1ccccc1C(=O)NCc1ccc(Cl)cc1)c1ccco1 | -0.699
Cc1nonc1OC(C)CNc1ccc([N+](=O)[O-])cc1 (centres undefined) | 0.228
O=C(c1ccco1)N1CCN(C(c2ccccn2)c2nnnn2C2CCCC2)CC1 (centres undefined) | -0.00379
O=C(Nc1ccc2c(c1)OCO2)NC1CCN(Cc2ccccc2)CC1 | 0.106
O=C(Cc1ccc(F)cc1)NCCc1ccc(F)cc1 | 0.128
O=C1c2cccc3cccc(c23)C(=O)N1/N=C/c1ccc(O)cc1O | -0.296
COc1cc(C2C(C(=O)c3ccc(C)o3)=C(O)C(=O)N2c2cc(C)on2)cc(Br)c1O (centres undefined) | -0.257
O=C(CN1C(=O)C2C3C=CC(C3)C2C1=O)NCCC1=CCCCC1 (centres undefined) | 0.852
O=C(COn1nnc2ccc(Cl)cc21)NCc1ccccc1 | 0.157
O=c1c2ccccc2nc(COc2ccccc2)n1/N=C/c1ccco1 | -0.24
O=c1c2ccccc2c(C=NCCc2ccccc2)c(O)n1Cc1ccccc1 | -0.112
c1ccc2nc(-c3ccncc3)ccc2c1 | -0.0132

SMILES | z-score
O=C(Nc1ccccn1)C1(c2cccs2)CCOCC1 | -1.95
CC1(C)CC(CCC(=O)Nc2ccccc2Cl)C(=O)O1 (centres undefined) | 0.106
COc1ccc(NC(=S)N2CCC(c3nc4ccccc4[nH]3)CC2)c(OC)c1 | -0.0654
COc1cc(C2=Nc3c(c(C)nn3-c3ccccc3)P(=O)(N3CCOCC3)O2)cc(OC)c1OC (centres undefined) | 0.798
c1ccc(Cn2nnnc2CN2CCCC2)cc1 | 0.234
COc1ccc(Oc2c(Cl)cnn(-c3ccccc3)c2=O)cc1 | -0.58
CCCCOc1ccc(OCCCC)c2c1NC1(N2)C(=O)N(C(C)=O)c2ccccc21 | 0.444
O=C(Nc1nccs1)c1cccc(S(=O)(=O)N2CCOCC2)c1 | 0.288
COc1ccc(C(=O)NC2(C(F)(F)F)NC(=O)N(CCCc3ccccc3)C2=O)c(OC)c1OC (centres undefined) | -0.277
CC(/C=C/c1ccc2c(c1)OCO2)=N/NC(=O)CNc1ccc(C)cc1 | -0.178
COCCn1nnnc1C(c1cc2ccc(OC)cc2[nH]c1=O)N1CCN(C2CCCCC2)CC1 (centres undefined) | -0.119
Cc1cc2c(=O)n(C)c(SCC(=O)c3cc4ccccc4o3)nc2s1 | 0.166
COc1ccc(-c2[nH]nc3c2C(c2ccccc2OC(=O)N2CCOCC2)C(C#N)=C(N)O3)cc1 (centres undefined) | -0.234
Cc1ccc(-c2noc(CSc3nnc(Cc4cccs4)n3-c3ccccc3)n2)cc1 | 0.818
CCOc1ccc(NC(=O)c2ccc(F)c(S(=O)(=O)N3CCN(c4ccccn4)CC3)c2)cc1 | 0.727
O=C(CC(c1ccccc1)c1ccccc1)Nc1ccc2c(c1)OCCO2 | -0.863
COc1cccc(Sc2cc(N3CCOCC3)nc(-c3ccccc3)n2)c1 | 0.548
CCN1CCc2c(sc(NC(=O)c3ccc(S(=O)(=O)N4CCOCC4)cc3)c2C(=O)OC)C1 | -0.0252
O=C(O)C1NCCc2ccccc21 (centres undefined) | 0.415
O=C(C1CCC(CNc2nc(=S)[nH]c3ccccc23)CC1)N1CCN(c2ccccn2)CC1 (centres undefined) | -0.654
CCOC(=O)C1=C(c2ccccc2)NC(=S)NC1c1cccc([N+](=O)[O-])c1 (centres undefined) | -0.203
CC(=O)c1ccc(NC(=O)C2Cc3ccccc3CN2C(=O)c2ccccc2)cc1 (centres undefined) | -0.25
COc1ccc(C(=O)N2CCC(C(=O)Nc3ccc4c(c3)OCO4)CC2)cc1 | 0.0586

SMILES | z-score
CCOC(=O)c1ccc2c(c1)nc(COc1ccc(OC)cc1)n2CC | -0.233
Cc1nc(NCCN2CCOCC2)c2nnn(Cc3ccccc3Cl)c2n1 | -0.7
CC(=O)c1sc2nc(SCC(=O)N3CCCCC3)[nH]c(=O)c2c1C | -0.237
CSCCC(NC(=O)C1CCC(C)CC1)C(=O)NCCN1CCOCC1 (centres undefined) | -0.328
CN(Cc1ccccc1)S(=O)(=O)c1ccc(S(=O)(=O)N2CCN(CCC#N)CC2)cc1 | -0.541
CC(N)C12CC3CC(C1)CC(C(C)N)(C3)C2 (centres undefined) | 1.22
Cc1cc(C)n(S(=O)(=O)c2ccc(Cl)c(Cl)c2Cl)n1 | -0.268
CCCn1c(N)c(C(=O)CSc2nnc(C3CC3)n2Cc2ccccc2)c(=O)[nH]c1=O | -0.664
CCOc1ccc(NC(=O)CSC2=NCCN2)cc1 | -0.121
O=C(NCc1ccccc1)c1csc2c1CCCCC2 | 0.0771
O=C(O)/C=C/C(=O)Nc1ccccc1-c1ccccc1 | -0.155
CC1Cc2ccccc2N1C(=O)CSc1ncc(-c2ccc(F)cc2)n1C (centres undefined) | -1.1
S=c1nc(-c2ccccc2Br)[nH][nH]1 | -0.253
CCOC(=O)N1CCN(C(=O)CS(=O)(=O)c2cn(Cc3ccccc3C)c3ccccc23)CC1 | 0.384
COc1ccc(NC(=S)NN2CCN(C)CC2)cc1OC | -0.115
Cn1c(NC(=O)Cc2ccc(F)cc2)cc(=O)n(C)c1=O | 2.79
c1ccc2c(c1)OCCOCCOCCOCCOc1ccccc1OCCOCCOCCO2 | 0.257
Cc1ccc(Nc2nc3c(s2)CCC3)c(C)c1 | 0.322
CN(C)c1nc(N(C)C)nc(N(C#N)CCOc2ccccc2)n1 | 1.26
COc1ccc2cc(C3(C)NC(=O)N(CC(=O)NCc4ccco4)C3=O)ccc2c1 (centres undefined) | -0.0569
Cc1ccc(C)c(NC(=O)CSc2nnc([C@@H](N)Cc3ccccc3)o2)c1 | -0.0095
CC(C)(C)NC(=O)CN(C(=O)Cn1nnc(-c2ccc(Cl)cc2)n1)C1CCN(Cc2ccccc2)CC1 | -0.128
O=C(c1cc(-c2ccncc2)nc2ccccc12)N1CCN(S(=O)(=O)/C=C/c2ccccc2)CC1 | 0.034
